# Article PMC4336329 (PLoS ONE, 2015)
# In all, about 310,000 compounds went through this assay and about 14,000 (4.5%) showed an effect of 50% or more. Effects have a minus sign here. This is one part of the list.
# Target: human ether-à-go-go-related gene (hERG) potassium channel (human, UniProt Q12809)
# Assay: primary screen, population patch clamp on CHO cells stably expressing hERG
# 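Further: peak tail current of the secondary pulse compared with the same well before compound.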
# human ether-à-go-go-related gene (hERG) potassium channel, sequence (Q12809 whole entry, looked up): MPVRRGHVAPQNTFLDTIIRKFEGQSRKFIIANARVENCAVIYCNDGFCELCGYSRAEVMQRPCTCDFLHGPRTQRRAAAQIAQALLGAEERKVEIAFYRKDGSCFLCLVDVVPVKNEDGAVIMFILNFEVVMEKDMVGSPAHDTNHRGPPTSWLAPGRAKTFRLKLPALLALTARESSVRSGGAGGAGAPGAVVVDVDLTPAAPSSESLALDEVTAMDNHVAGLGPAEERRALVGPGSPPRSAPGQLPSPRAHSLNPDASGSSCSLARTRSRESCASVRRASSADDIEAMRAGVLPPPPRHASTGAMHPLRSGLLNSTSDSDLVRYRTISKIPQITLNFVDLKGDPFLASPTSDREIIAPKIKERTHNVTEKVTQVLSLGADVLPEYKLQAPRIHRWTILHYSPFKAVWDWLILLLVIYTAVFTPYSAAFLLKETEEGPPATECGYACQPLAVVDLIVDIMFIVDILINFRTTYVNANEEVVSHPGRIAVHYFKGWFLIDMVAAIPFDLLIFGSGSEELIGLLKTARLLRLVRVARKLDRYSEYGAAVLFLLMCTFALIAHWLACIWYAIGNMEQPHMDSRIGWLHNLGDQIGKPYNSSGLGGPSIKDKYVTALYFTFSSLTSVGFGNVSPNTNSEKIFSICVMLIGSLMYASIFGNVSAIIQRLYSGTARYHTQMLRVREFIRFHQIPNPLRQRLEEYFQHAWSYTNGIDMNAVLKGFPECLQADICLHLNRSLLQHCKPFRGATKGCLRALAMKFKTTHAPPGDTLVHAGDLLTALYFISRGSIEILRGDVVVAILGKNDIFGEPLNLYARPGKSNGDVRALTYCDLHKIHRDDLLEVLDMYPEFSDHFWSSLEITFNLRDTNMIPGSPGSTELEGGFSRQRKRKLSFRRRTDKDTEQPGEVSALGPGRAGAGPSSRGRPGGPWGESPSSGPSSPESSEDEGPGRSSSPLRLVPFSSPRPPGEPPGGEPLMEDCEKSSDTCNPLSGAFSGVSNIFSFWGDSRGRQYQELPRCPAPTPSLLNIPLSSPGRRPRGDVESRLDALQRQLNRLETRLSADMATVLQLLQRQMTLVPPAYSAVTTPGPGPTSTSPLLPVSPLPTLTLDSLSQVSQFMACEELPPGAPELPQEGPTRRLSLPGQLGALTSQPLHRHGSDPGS
row,Compound,"hERG current change (%, negative = inhibition) at 10uM [%]"
1,CC(=O)OC(Cn1ccnc1)c1ccccc1.Cl (centres unmarked),5.17
2,Nc1nnc(SCC(=O)N2CCc3ccccc32)n1-c1ccccc1,6.94
3,Cc1nc(NC(=O)CSc2nnc(C3CC3)n2C)sc1C(=O)N(C)C,17.5
4,N#CCCN(Cc1ccccc1)C(=O)Nc1ccc(F)cc1,9.77
5,COc1ccc(CN(C)CC(=O)Nc2cccc3ccccc23)cc1F,-13.4
6,O=C1Nc2cc(Cl)c(Cl)cc2N(O)N1c1cc(Cl)cc(Cl)c1,18.3
7,CC(C)c1ccc(NC(=O)COC(=O)[C@H](CCC(N)=O)NC(=O)c2ccc(F)cc2)cc1,-45.5
8,COc1ccc(S(=O)(=O)N2CCC(C(=O)NCC3CCCO3)CC2)cc1OC (centres unmarked),19.9
9,COCCCNC(=O)CC(NS(=O)(=O)c1ccc(Cl)cc1)c1ccco1 (centres unmarked),6.24
10,CCOc1ccc(-n2c(SCC)nc3c(c2=O)SCC3)cc1,15
11,O=S(=O)(Nc1cccc2c1CCCC2)c1cccc(C(F)(F)F)c1,-4.79
12,CCOC(=O)c1c(C)[nH]c(C(=O)OCC(=O)NC(C)C)c1C,-5.7
13,COc1ccc(/C=C/C(=O)NCCNC(=O)c2ccccc2)cc1OC,-8.61
14,N#Cc1ccc(CN2C=NS(=O)(=O)c3ccccc32)cc1,-14.7
15,NC(CSCc1cccc(Br)c1)C(=O)O (centres unmarked),-45.7
16,COC(=O)c1ccc(OCC(=O)c2ccc(O)cc2O)cc1,-11.3
17,CS(=O)(=O)c1ccc2nc(NC(=O)Cc3ccccc3)sc2c1,-0.144
18,Cc1ccc(NC(=O)c2cccc3c2C(=O)N(C2CCCCC2)C3)c(C)c1,12.3
19,Cc1cccc(CN2CCN(c3ccccn3)CC2)c1,-17
20,Cc1nc(NC(=O)C2CC2)sc1C(=O)N(C)C,23.8
21,COc1ccc(S(=O)(=O)Nc2ccc(C)cc2)cc1OC,-22.7
22,O=C(NCCc1ccccc1)C1CCC(CNS(=O)(=O)c2ccccc2)CC1 (centres unmarked),13.4
23,Cc1ccc2nc(-c3ccc(NC(=O)CN(c4ccccc4C)S(C)(=O)=O)cc3)sc2c1,-7.27
24,CN1CCN(C(=O)c2ccccc2[N+](=O)[O-])CC1,7.95
25,Clc1cccc(OCCCn2ccnc2)c1,6.9
26,O=C(CNS(=O)(=O)c1ccccc1)OCc1cccc([N+](=O)[O-])c1,-30
